Results from PubChem BioAssay (NCATS).
“And” between values parts separate entries of the source, which are not always exact repeats. Equal entries are not always repeated. Inconclusive means that the source gave no clear call. Such entries were picked first, then a sample of the others. For part of these data: Where the call is inconclusive, the potency comes from a doubtful curve fit. The source made the active and inactive calls. Calls follow the shape of the dose curve; as a rule, active = well fitted curve in the direction sought with a large enough effect; inconclusive = small, poorly fitted or top-dose-only effect, or another doubt; inactive = no such curve, though single readings can be large; an effect the other way counts as inactive or inconclusive.

Legend:
NIH3T3 = assay: Cytotoxic Profiling of Annotated Libraries Using Quantitative High-Throughput Screening (AID 1296008); settings: Five cell lines viability, CellTiter-Glo ATP luminescence, 48-72 h; max response: stronger effect = lower value; also: nearly all actives have a fitted effect of over 60% in size
Method in brief: (§1)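 Compounds were pin-transferred onto cells and incubated 48 or 72 hr at 37 degree Celsius, 95% humidity. CellTiter-Glo was added, plates sat 10 min at room temperature, then ATP-coupled luminescence was imaged as the viability read-out.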

MKL-1 = assay: qHTS assay to identify novel small-molecules to repurpose for Merkel cell carcinoma treatment (AID 1296009); settings: MCC and control cell lines, CellTiter-Glo viability, 72 h; series mostly up to 46 µM; also: nearly all actives have a fitted effect of over 60% in size
Method in brief: (§2)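 Luminescence from CellTiter-Glo, read 10 min after addition at room temperature, reported viability following a 72 hr, 37 degree celsius treatment with NPC or MIPE compounds in titration; values normalized to plate controls.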

UISO = assay: as above; settings: MCC and control cell lines, CellTiter-Glo viability, 72 h; series mostly up to 46 µM
Method in brief: as §2

WaGa = assay: as above; settings: MCC and control cell lines, CellTiter-Glo viability, 72 h; series mostly up to 46 µM
Method in brief: as §2

CAOV3 = assay: Primary qHTS to identify gynecologic anti-cancer compounds using libraries of approved drugs and bioactive compounds (AID 1345084); settings: Gynecologic cancer cell panel viability, ATPlite luminescence, 48 h; series mostly up to 57.5 µM; also: nearly all actives have a fitted effect of over 55% in size
Method in brief: (§3)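 Cytotoxicity screen measuring ATP content by luciferase luminescence. Each compound is applied at five concentrations for 48 h at 37 C with 5% CO2.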

OV90 = assay: as above; settings: Gynecologic cancer cell panel viability, ATPlite luminescence, 48 h; series mostly up to 57.5 µM
Method in brief: as §3

SKOV3 = assay: as above; settings: Gynecologic cancer cell panel viability, ATPlite luminescence, 48 h; series mostly up to 57.5 µM
Method in brief: as §3

CASKI = assay: as above; settings: Gynecologic cancer cell panel viability, ATPlite luminescence, 48 h; series mostly up to 57.5 µM
Method in brief: as §3

Es-2 = assay: as above; settings: Gynecologic cancer cell panel viability, ATPlite luminescence, 48 h; series mostly up to 57.5 µM
Method in brief: as §3

HeLa = assay: as above; settings: Gynecologic cancer cell panel viability, ATPlite luminescence, 48 h; series mostly up to 57.5 µM
Method in brief: as §3

Hek293T = assay: as above; settings: Gynecologic cancer cell panel viability, ATPlite luminescence, 48 h, control line for the selectivity index; series mostly up to 57.5 µM
Method in brief: as §3

JEG-3 = assay: as above; settings: Gynecologic cancer cell panel viability, ATPlite luminescence, 48 h; series mostly up to 57.5 µM
Method in brief: as §3

PA-1 = assay: as above; settings: Gynecologic cancer cell panel viability, ATPlite luminescence, 48 h; series mostly up to 57.5 µM
Method in brief: as §3

MCC-13 = assay: qHTS assay to identify novel small-molecules to repurpose for Merkel cell carcinoma treatment (AID 1296009); settings: MCC and control cell lines, CellTiter-Glo viability, 72 h; series mostly up to 46 µM; also: nearly all actives have a fitted effect of over 60% in size
Method in brief: as §2

MCC-26 = assay: as above; settings: MCC and control cell lines, CellTiter-Glo viability, 72 h; activity change, negative = cytotoxicity: at 46 µM (top of the series)
Method in brief: as §2

MKL-2 = assay: as above; settings: MCC and control cell lines, CellTiter-Glo viability, 72 h; activity change, negative = cytotoxicity: at 46 µM (top of the series)
Method in brief: as §2

C33A = assay: Primary qHTS to identify gynecologic anti-cancer compounds using libraries of approved drugs and bioactive compounds (AID 1345084); settings: Gynecologic cancer cell panel viability, ATPlite luminescence, 48 h; series mostly up to 57.5 µM; also: nearly all actives have a fitted effect of over 55% in size
Method in brief: as §3

KB-3-1 = assay: Cytotoxic Profiling of Annotated Libraries Using Quantitative High-Throughput Screening (AID 1296008); settings: Five cell lines viability, CellTiter-Glo ATP luminescence, 48-72 h; max response: stronger effect = lower value; also: nearly all actives have a fitted effect of over 60% in size
Method in brief: as §1
% is scaled to controls: 0 for no effect and ±100 for the full control effect; potency is read from the fitted curve at half-maximal effect; tags tell the direction and shape of the fitted curve.

SMILES: CSc1ccc2c(c1)C(N1CCN(C)CC1)Cc1ccccc1S2 (stereo not given)
- Potency (NIH3T3): inconclusive: 33.5 µM [inhibitor, single point]
- Potency (MKL-1): inconclusive: 29.9 µM [inhibitor, single point]
- Potency (UISO): inconclusive: 21.1 µM [inhibitor, single point]
- Potency (WaGa): inconclusive: 23.7 µM [inhibitor, single point]
- Potency (CAOV3): inconclusive: 35.5 µM [cytotoxic, single point]
- Potency (OV90): inconclusive: 20 µM [cytotoxic, single point]
- Potency (SKOV3): inconclusive: 39.8 µM [cytotoxic, single point]

SMILES: Cc1nc(-c2ccc(OCC(C)C)c(C#N)c2)sc1C(=O)O
- max response (NIH3T3): inactive: 4.8%
- outcome (NIH3T3): inactive
- Potency (CAOV3): inconclusive: 25.1 µM [cytotoxic, partial curve, poor fit]
- Potency (CASKI): inconclusive: 39.8 µM [cytotoxic, single point]
- Potency (Es-2): inconclusive: 28.2 µM [cytotoxic, single point]
- Potency (HeLa): inconclusive: 25.1 µM [cytotoxic, single point]
- Potency (Hek293T): inconclusive: 17.8 µM [cytotoxic, partial curve]
- Potency (JEG-3): inconclusive: 25.1 µM [cytotoxic, single point]
- Potency (OV90): inconclusive: 39.8 µM [cytotoxic, single point]
- Potency (PA-1): inconclusive: 31.6 µM [cytotoxic, single point]
- Potency (SKOV3): inconclusive: 31.6 µM [cytotoxic, single point]

SMILES: FC(F)(F)C(F)(F)C(F)(F)C(F)(F)C(F)(F)C(F)(F)C(F)(F)C(F)(F)Br
- Potency (MCC-13): inactive

SMILES: O=C(O)c1ccccc1C(=O)Nc1ccc(-c2ccccc2)cc1
- Potency (NIH3T3): inconclusive: 25.9 µM [inhibitor, single point]
- Potency (MCC-26): inactive
- Potency (WaGa): inactive
- Potency (CAOV3): inconclusive: 39.8 µM [cytotoxic, single point]
- Potency (CASKI): inconclusive: 31.6 µM [cytotoxic, single point]
- Potency (Es-2): inconclusive: 39.8 µM [cytotoxic, single point]
- Potency (HeLa): inconclusive: 28.2 µM [cytotoxic, single point]
- Potency (Hek293T): inconclusive: 39.8 µM [cytotoxic, single point]
- Potency (JEG-3): inconclusive: 31.6 µM [cytotoxic, single point]
- Potency (OV90): inconclusive: 39.8 µM [cytotoxic, single point]
- Potency (PA-1): inconclusive: 39.8 µM [cytotoxic, single point]
- Potency (SKOV3): active: 25.1 µM

SMILES: O=C(O)Cc1cccc(OCCCN(Cc2cccc(C(F)(F)F)c2Cl)CC(c2ccccc2)c2ccccc2)c1
- Potency (MCC-13): inconclusive: 33.2 µM [inhibitor, single point]
- Potency (MKL-2): inactive
- Potency (UISO): inconclusive: 29.6 µM [inhibitor, single point]

SMILES: CCCNC(C)C(=O)Nc1ccccc1C (stereo not given)
- max response (NIH3T3): inactive: -0.782%
- Potency (MKL-2): inactive
- Potency (HeLa): inactive

SMILES: Nc1ccccc1N
- Potency (NIH3T3): inconclusive: 34.4 µM [inhibitor, partial curve]
- Potency (MCC-13): inconclusive: 30.6 µM [inhibitor, partial curve]
- Potency (MKL-1): inconclusive: 13.7 µM [inhibitor, partial curve]
- Potency (MKL-2): inconclusive: 3.44 µM [inhibitor, full curve]
- Potency (UISO): inconclusive: 13.7 µM [inhibitor, partial curve]
- Potency (WaGa): inconclusive: 13.7 µM [inhibitor, partial curve]
- Potency (C33A): active: 10 µM
- Potency (CAOV3): active: 5.62 µM
- Potency (CASKI): active: 7.94 µM
- Potency (Es-2): active: 11.2 µM
- Potency (HeLa): active: 12.6 µM
- Potency (Hek293T): active: 7.94 µM
- Potency (JEG-3): inconclusive: 14.1 µM [cytotoxic, full curve]
- Potency (OV90): active: 10 µM

SMILES: COc1ncc(-c2ccc3nccc(-c4ccnnc4)c3c2)cc1NS(=O)(=O)c1ccc(F)cc1F
- Potency (NIH3T3): active: 3.7 nM and inconclusive: 6.5 nM [inhibitor, full curve, poor fit]
- Potency (MCC-13): active: 0.833 µM
- Potency (MCC-26): active: 0.372 µM
- Potency (MKL-1): active: 1.48 µM
- Potency (MKL-2): active: 0.105 µM
- Potency (C33A): inconclusive: 0.316 µM [cytotoxic, full curve]
- Potency (CAOV3): inconclusive: 2.24 µM [cytotoxic, partial curve, poor fit]
- Potency (CASKI): inconclusive: 0.282 µM [cytotoxic, full curve, poor fit]
- Potency (Es-2): inconclusive: 1 µM [cytotoxic, full curve, poor fit]
- Potency (HeLa): active: 0.631 µM
- Potency (Hek293T): active: 0.1 µM
- Potency (JEG-3): active: 25.1 µM
- Potency (OV90): active: 3.55 µM
- Potency (PA-1): active: 0.355 µM
- Potency (SKOV3): inconclusive: 0.251 µM [cytotoxic, full curve, poor fit]

SMILES: Cc1c(N)c(=O)n(-c2ccccc2)n1C
- max response (KB-3-1): inactive: -14.7%
- Potency (WaGa): inactive

SMILES: Nc1ccc([N+](=O)[O-])cc1O
- Potency (NIH3T3): inconclusive: 2.43 µM [inhibitor, full curve, poor fit]
- Potency (MKL-1): inconclusive: 68.6 µM [inhibitor, partial curve, poor fit]
- Potency (MKL-2): inconclusive: 24.3 µM [inhibitor, partial curve]
- Potency (UISO): inconclusive: 34.4 µM [inhibitor, partial curve]
- Potency (WaGa): inconclusive: 10.9 µM [inhibitor, partial curve]
- Potency (CASKI): inconclusive: 15.8 µM [cytotoxic, single point]
- Potency (Es-2): inconclusive: 31.6 µM [cytotoxic, partial curve, poor fit]
- Potency (OV90): inconclusive: 10 µM [cytotoxic, full curve, poor fit]
- Potency (PA-1): active: 4.47 µM
- Potency (SKOV3): inconclusive: 2 µM [rising, full curve, poor fit]

SMILES: CC(=O)Nc1ccc(O)cc1
- max response (KB-3-1): inactive: 23.8% and inactive: 2.6%
- Potency (MKL-2): inactive and inconclusive: 16.6 µM [inhibitor, partial curve, poor fit]
- Potency (OV90): inactive
- Potency (SKOV3): inconclusive: 8.91 µM [rising, single point]

SMILES: COc1cc2c(Oc3ccc(NC(=O)C4(C(=O)Nc5ccc(F)cc5)CC4)cc3F)ccnc2cc1OCCCN1CCOCC1
- Potency (NIH3T3): active: 526 nM and active: 731 nM
- Potency (MCC-13): active: 14.8 µM
- Potency (MCC-26): active: 4.69 µM
- Potency (MKL-2): inconclusive: 59 µM [inhibitor, partial curve, poor fit]
- Potency (WaGa): inconclusive: 4.18 µM [inhibitor, full curve]
- Potency (C33A): inconclusive: 35.5 µM [cytotoxic, single point]
- Potency (CAOV3): active: 10 µM
- Potency (CASKI): inconclusive: 14.1 µM [cytotoxic, partial curve, poor fit]
- Potency (Es-2): active: 25.1 µM
- Potency (Hek293T): active: 7.94 µM
- Potency (OV90): active: 12.6 µM
- Potency (PA-1): active: 28.2 µM
- Potency (SKOV3): active: 22.4 µM

SMILES: O=c1cc(-c2ccccc2)oc2ccccc12
- Potency (NIH3T3): inconclusive: 48.1 µM [inhibitor, single point]
- Potency (MKL-2): inconclusive: 30.3 µM [inhibitor, partial curve, poor fit]
- Potency (UISO): inconclusive: 53.9 µM [inhibitor, single point]
- Potency (WaGa): inconclusive: 24.1 µM [inhibitor, single point]
- Potency (C33A): inconclusive: 25.1 µM [cytotoxic, partial curve]
- Potency (CAOV3): inconclusive: 25.1 µM [cytotoxic, partial curve, poor fit]
- Potency (CASKI): inconclusive: 35.5 µM [cytotoxic, partial curve, poor fit]
- Potency (Es-2): inconclusive: 35.5 µM [cytotoxic, single point]
- Potency (Hek293T): inconclusive: 28.2 µM [cytotoxic, partial curve, poor fit]
- Potency (JEG-3): inconclusive: 25.1 µM [cytotoxic, partial curve]
- Potency (OV90): inconclusive: 39.8 µM [cytotoxic, single point]
- Potency (PA-1): inconclusive: 31.6 µM [cytotoxic, single point]
- Potency (SKOV3): active: 31.6 µM

SMILES: CC(=C(CCOC(=O)C(C)C)SSC(CCOC(=O)C(C)C)=C(C)N(C=O)Cc1cnc(C)nc1N)N(C=O)Cc1cnc(C)nc1N
- max response (KB-3-1): inactive: 1.98%
- Potency (MKL-2): inconclusive: 21.1 µM [inhibitor, single point]
- Potency (Hek293T): inconclusive: 0.631 µM [rising, partial curve, poor fit]
- Potency (OV90): inactive

SMILES: O=C(Nc1nc2ccccc2n1CCN1CCOCC1)c1cccc([N+](=O)[O-])c1
- Potency (MCC-13): inactive
- Potency (MKL-1): inconclusive: 33.2 µM [inhibitor, single point]
- Potency (MKL-2): inconclusive: 18.7 µM [inhibitor, partial curve]
- Potency (WaGa): inconclusive: 26.4 µM [inhibitor, single point]

SMILES: CC(=O)Oc1ccccc1C(=O)O
- max response (NIH3T3): inactive: 0.988% and inactive: 3.48%
- Potency (MKL-2): inconclusive: 4.22 µM [inhibitor, full curve]
- Potency (UISO): inactive
- Potency (WaGa): inconclusive: 13.3 µM [inhibitor, partial curve]

SMILES: O=C(NNC(=O)c1ccc(CNS(=O)(=O)c2ccc(F)c(Cl)c2)cc1)c1ccccc1
- Potency (MCC-13): inactive
- Potency (MCC-26): inactive
- Potency (WaGa): inactive

SMILES: CN(C)c1ccc2nc3ccc(=[N+](C)C)cc-3sc2c1
- Potency (MCC-13): active: 7.43 µM and active: 2.66 µM
- Potency (MCC-26): inconclusive: 20.9 µM [inhibitor, partial curve]
- Potency (UISO): active: 3.32 µM and active: 2.37 µM
- Potency (C33A): active: 1.12 µM
- Potency (CAOV3): active: 3.98 µM
- Potency (CASKI): active: 7.08 µM
- Potency (HeLa): inconclusive: 22.4 µM [cytotoxic, partial curve, poor fit]
- Potency (Hek293T): active: 14.1 µM
- Potency (JEG-3): active: 2 µM
- Potency (OV90): active: 12.6 µM
- Potency (PA-1): active: 0.891 µM
- Potency (SKOV3): inconclusive: 20 µM [cytotoxic, partial curve, poor fit]
